B1: AGCUAUG (DNA:RNA)
RNA: GGGAGACCGGAAUUCAGAUUGUCCAGCUAUGUUAAAUCCCGUCGUAGCCACCA
DNA 1: CAATCTGAATTCCGGTCTCCC
DNA 2: TGGTGGCTACGACGGGATT
B2: CAGUGGU (DNA:RNA)
RNA: B1 RNA with A25C, G26A, C27G, A29G, U30G, G31U
DNA 1: CAATCTGAATTCCGGTCTCCC
DNA 2: TGGTGGCTACGACGGGATT
B3: CACCAUA (DNA:RNA)
RNA: B1 RNA with A25C, G26A, U28C, G31A
DNA 1: CAATCTGAATTCCGGTCTCCC
DNA 2: TGGTGGCTACGACGGGATT
B4: GGGUGUC (DNA:RNA)
RNA: B1 RNA with A25G, C27G, A29G, G31C
DNA 1: CAATCTGAATTCCGGTCTCCC
DNA 2: TGGTGGCTACGACGGGATT
B5: CCAGAUA (DNA:RNA)
RNA: B1 RNA with A25C, G26C, C27A, U28G, G31A
DNA 1: CAATCTGAATTCCGGTCTCCC
DNA 2: TGGTGGCTACGACGGGATT
B6: CGCGACG (DNA:RNA)
RNA: B1 RNA with A25C, U28G, U30C
DNA 1: CAATCTGAATTCCGGTCTCCC
DNA 2: TGGTGGCTACGACGGGATT
B7: GCCUCCU (DNA:RNA)
RNA: B1 RNA with A25G, G26C, A29C, U30C, G31U
DNA 1: CAATCTGAATTCCGGTCTCCC
DNA 2: TGGTGGCTACGACGGGATT
B8: AGUAGCU (DNA:RNA)
RNA: B1 RNA with C27U, U28A, A29G, U30C, G31U
DNA 1: CAATCTGAATTCCGGTCTCCC
DNA 2: TGGTGGCTACGACGGGATT
B9: AUGACGA (DNA:RNA)
RNA: B1 RNA with G26U, C27G, U28A, A29C, U30G, G31A
DNA 1: CAATCTGAATTCCGGTCTCCC
DNA 2: TGGTGGCTACGACGGGATT
B10: GUAAAUC (DNA:RNA)
RNA: B1 RNA with A25G, G26U, C27A, U28A, G31C
DNA 1: CAATCTGAATTCCGGTCTCCC
DNA 2: TGGTGGCTACGACGGGATT
B11: UGGUCCU (DNA:RNA)
RNA: B1 RNA with A25U, C27G, A29C, U30C, G31U
DNA 1: CAATCTGAATTCCGGTCTCCC
DNA 2: TGGTGGCTACGACGGGATT
B12: UACUCAA (DNA:RNA)
RNA: B1 RNA with A25U, G26A, A29C, U30A, G31A
DNA 1: CAATCTGAATTCCGGTCTCCC
DNA 2: TGGTGGCTACGACGGGATT
B13: ACUAAGU (DNA:RNA)
RNA: B1 RNA with G26C, C27U, U28A, U30G, G31U
DNA 1: CAATCTGAATTCCGGTCTCCC
DNA 2: TGGTGGCTACGACGGGATT
B14: CCCAGCC (DNA:RNA)
RNA: B1 RNA with A25C, G26C, U28A, A29G, U30C, G31C
DNA 1: CAATCTGAATTCCGGTCTCCC
DNA 2: TGGTGGCTACGACGGGATT
B15: AUUGAAC (DNA:RNA)
RNA: B1 RNA with G26U, C27U, U28G, U30A, G31C
DNA 1: CAATCTGAATTCCGGTCTCCC
DNA 2: TGGTGGCTACGACGGGATT
B16: GUCUGUG (DNA:RNA)
RNA: B1 RNA with A25G, G26U, A29G
DNA 1: CAATCTGAATTCCGGTCTCCC
DNA 2: TGGTGGCTACGACGGGATT
B17: CCACGCA (DNA:RNA)
RNA: GGGAGACCGGAAUUCAGAUUGUCCCCACGCAUUAAAUCCCGUCGUAGCCACCA
DNA 1: CAATCTGAATTCCGGTCTCCC
DNA 2: TGGTGGCTACGACGGGATT
B18: GGGUGAG (DNA:RNA)
RNA: B1 RNA with A25G, C27G, A29G, U30A
DNA 1: CAATCTGAATTCCGGTCTCCC
DNA 2: TGGTGGCTACGACGGGATT
B19: GGGGAGC (DNA:RNA)
RNA: B1 RNA with A25G, C27G, U28G, U30G, G31C
DNA 1: CAATCTGAATTCCGGTCTCCC
DNA 2: TGGTGGCTACGACGGGATT
B20: CUGUUGG (DNA:RNA)
RNA: B1 RNA with A25C, G26U, C27G, A29U, U30G
DNA 1: CAATCTGAATTCCGGTCTCCC
DNA 2: TGGTGGCTACGACGGGATT

Residue numbers refer to the chain shown, from its start. This is one part of the list.

This experiment has as its target T1, RBFOX1 RRM RbFoxmut (Fox-RRM*) (Homo sapiens, UniProt Q9NWB1 109-208, R118D;E147R;N151S;E152T).
T1 sequence: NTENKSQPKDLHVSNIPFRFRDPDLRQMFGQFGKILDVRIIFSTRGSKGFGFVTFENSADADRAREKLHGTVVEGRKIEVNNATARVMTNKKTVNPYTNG
Nature of the experiment: EMSA; HiTS-Eq, 1 nM pool, 10 min; buffer printed only for the single-RNA assays: 10 mM Tris pH 7.5, 150 mM NaCl, 3.4 mM EDTA, 0.001% NP-40, 30 C. Particulars: tags: His6 N-terminal (pET28a); label: 5' 32P. In short, it runs like this: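 A pool of RNA with 7 randomized nucleotides, 5′-radiolabelled and with DNA-annealed flanks, was equilibrated at 1 nM for 10 min in 50 µL with purified RbFox RRM, wild type or mutant, across increasing protein concentrations. Free RNA was separated by 8% native PAGE, excised, reverse-transcribed, barcoded by PCR and sequenced. Relative association constants were obtained from read-count changes of each RNA species versus the control reaction and normalised to the cognate motif.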
(In general: Mobility shift assays separate free from complexed probe on a gel.)
B1: the binding signal was 0.229 KA relative to UGCAUGU. As to B2, the binding signal was 0.13 KA relative to UGCAUGU.

For B3, the binding signal is 0.138 KA relative to UGCAUGU. On to B4, for which the binding signal was 0.368 KA relative to UGCAUGU. With B5, the binding signal is 0.14 KA relative to UGCAUGU. B6: the binding signal was 0.118 KA relative to UGCAUGU. Regarding B7, the binding signal is 0.0603 KA relative to UGCAUGU. On to B8, for which the binding signal was 0.0966 KA relative to UGCAUGU. Regarding B9, the binding signal is 0.0609 KA relative to UGCAUGU. Consider B10, for which the binding signal was 0.0595 KA relative to UGCAUGU. For B11 the value was 0.0987 KA relative to UGCAUGU; for B12, 0.0652 KA relative to UGCAUGU. With B13, the binding signal was 0.126 KA relative to UGCAUGU. Turning to B14, the binding signal is 0.109 KA relative to UGCAUGU. Consider B15, for which the binding signal is 0.101 KA relative to UGCAUGU. For B16 the value was 0.191 KA relative to UGCAUGU; for B17, 0.151 KA relative to UGCAUGU; for B18, 0.147 KA relative to UGCAUGU. Turning to B19, the binding signal is 0.104 KA relative to UGCAUGU. For the molecule B20, the binding signal was 0.0974 KA relative to UGCAUGU.

The record behind these values is article PMC9911399, “Two distinct binding modes provide the RNA-binding protein RbFox with extraordinary sequence specificity”.
